From article PMC4336329 (PLoS ONE, 2015) come the findings set out here.

In all, about 310,000 compounds went through this assay and about 14,000 (4.5%) showed an effect of 50% or more. Effects have a minus sign here. This is one part of the list.
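Note: peak tail current of the secondary pulse compared with the same well before compound.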

The target of this test is human ether-à-go-go-related gene (hERG) potassium channel (human, UniProt Q12809). Briefly: primary screen, population patch clamp on CHO cells stably expressing hERG.
human ether-à-go-go-related gene (hERG) potassium channel, sequence (Q12809 whole entry, looked up): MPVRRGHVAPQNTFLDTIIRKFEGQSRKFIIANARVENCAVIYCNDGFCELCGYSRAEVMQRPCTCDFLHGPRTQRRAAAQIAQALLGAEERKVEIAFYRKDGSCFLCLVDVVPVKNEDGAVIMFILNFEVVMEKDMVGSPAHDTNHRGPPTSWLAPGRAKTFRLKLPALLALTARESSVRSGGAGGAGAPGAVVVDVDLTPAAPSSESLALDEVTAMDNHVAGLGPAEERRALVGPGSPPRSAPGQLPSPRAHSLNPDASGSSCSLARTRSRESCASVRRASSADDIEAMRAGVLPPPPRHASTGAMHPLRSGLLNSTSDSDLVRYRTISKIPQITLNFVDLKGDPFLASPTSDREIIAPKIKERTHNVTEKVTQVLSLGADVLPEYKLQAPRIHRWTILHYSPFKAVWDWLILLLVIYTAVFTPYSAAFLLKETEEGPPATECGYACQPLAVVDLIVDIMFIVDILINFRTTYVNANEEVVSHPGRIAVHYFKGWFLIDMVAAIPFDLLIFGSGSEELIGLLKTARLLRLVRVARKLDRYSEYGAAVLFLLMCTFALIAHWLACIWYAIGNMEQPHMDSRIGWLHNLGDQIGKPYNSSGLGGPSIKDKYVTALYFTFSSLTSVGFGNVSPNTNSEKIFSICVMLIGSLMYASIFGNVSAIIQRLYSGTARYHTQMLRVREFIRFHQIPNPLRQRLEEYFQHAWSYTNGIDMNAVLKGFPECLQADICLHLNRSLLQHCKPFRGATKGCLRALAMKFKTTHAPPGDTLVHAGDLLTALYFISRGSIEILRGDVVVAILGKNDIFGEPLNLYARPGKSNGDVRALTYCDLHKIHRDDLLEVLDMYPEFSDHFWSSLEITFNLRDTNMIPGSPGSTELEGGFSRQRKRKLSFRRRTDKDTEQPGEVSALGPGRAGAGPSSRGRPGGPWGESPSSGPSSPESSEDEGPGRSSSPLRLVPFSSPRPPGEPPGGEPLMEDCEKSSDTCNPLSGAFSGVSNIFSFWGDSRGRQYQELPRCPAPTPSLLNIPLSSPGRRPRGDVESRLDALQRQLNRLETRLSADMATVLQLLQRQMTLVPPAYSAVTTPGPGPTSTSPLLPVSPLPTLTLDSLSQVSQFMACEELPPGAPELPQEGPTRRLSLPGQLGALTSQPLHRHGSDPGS
On to `CCC(C)(C)NC(=O)CN(Cc1cccs1)C(=O)CCC(=O)Nc1nccs1`, for which the “hERG current change (%, negative = inhibition) at 10uM” value was -36.6%.

Consider `O=C(c1n[nH]c(=O)c2ccccc12)N1CCC2(CC1)OCCO2`, for which the “hERG current change (%, negative = inhibition) at 10uM” value is on record as 16.7%.

Regarding `Cn1c(Cn2c(=O)sc3ccccc32)nnc1SCC(=O)Nc1ccc2c(c1)OCO2`, the “hERG current change (%, negative = inhibition) at 10uM” value was 0.687%. For `Nc1ccc(C(=O)[O-])c(O)c1.O.[Na+]`, the “hERG current change (%, negative = inhibition) at 10uM” value is 11.7%. In the case of `O=C(OCC(=O)N1CCc2ccccc2C1)c1ccc(N2CCOCC2)c([N+](=O)[O-])c1`, the “hERG current change (%, negative = inhibition) at 10uM” value is -51%. Consider `CC(=O)c1cc2c(cc1NS(=O)(=O)c1ccccc1C)OCO2`, for which the “hERG current change (%, negative = inhibition) at 10uM” value is 0.0355%.

In the case of `CN1CCc2c(c3c(n2C)CCN(C)[C@@H]3c2cccnc2)[C@H]1c1cccnc1.Cl`, the “hERG current change (%, negative = inhibition) at 10uM” value is reported as 35.9%.

Turning to `O=C(OCCCc1cc2ccccc2c(=O)o1)c1ccc(F)cc1`, the “hERG current change (%, negative = inhibition) at 10uM” value is -37.9%. For `COc1ccccc1CN1CCC(n2nccc2NC(=O)CCCc2ccccc2)CC1` the value was -85.2%; for `COC(=O)c1cc(NC(=O)c2ccccc2)c(=O)oc1C/C=N\OCc1ccc(Cl)cc1Cl`, -11.7%; for `CCOc1ccc(NC(=O)NNC(=O)C(C)Oc2ccccc2OC)cc1` (stereo not shown), -0.531%.

For the compound `O=[N+]([O-])c1cc(C(F)(F)F)ccc1NC1CCN(Cc2ccccc2)CC1`, the “hERG current change (%, negative = inhibition) at 10uM” value is reported as -68%. Next, `Cc1cccc(NS(=O)(=O)c2ccc(C(=O)N3CCC3)cc2)c1C`: 1.53%.

`O=[N+]([O-])c1ccc(Oc2cccnc2)nc1`: the “hERG current change (%, negative = inhibition) at 10uM” value was found to be 12.7%.

Take `CCCS(=O)(=O)c1nc(S(=O)(=O)c2ccc(C)cc2)c(N2CCN(CC)CC2)s1`: the “hERG current change (%, negative = inhibition) at 10uM” value is -36.4%. Take `CS(=O)(=O)O.Clc1cccc2c1Sc1ccccc1CC2N1CCNCC1` (stereo not shown): the “hERG current change (%, negative = inhibition) at 10uM” value is -72.4%. Next, `COc1ccc(C(=O)Nc2cccnc2)cc1C(=O)Nc1cccnc1`: 20.3%. For `CCOC(=O)c1ccc(NC(=O)Oc2cc(C)c(Cl)cc2C(C)C)cc1`, the “hERG current change (%, negative = inhibition) at 10uM” value is listed as 3.44%. `CC(C)c1ccc(O)c(NC(=O)c2ncn[nH]2)c1`: the “hERG current change (%, negative = inhibition) at 10uM” value stood at 5.34%.

On to `Cc1ccccc1CNS(=O)(=O)c1c(C)[nH]c(C)c1C(=O)N1CCCCC1`, for which the “hERG current change (%, negative = inhibition) at 10uM” value is -22.2%. For `CCCCC(=O)Nc1nc(C)c(-c2csc(Nc3cc(Cl)ccc3OC)n2)s1` the value was 4.31%; for `N/C(=N\OC(=O)c1ccc(Br)cc1)c1ccncc1`, -4.59%. Take `CCOc1cccc(C2C(C(=O)c3ccc(C)o3)=C(O)C(=O)N2c2nccs2)c1` (stereo not shown): the “hERG current change (%, negative = inhibition) at 10uM” value is 0.752%.

For the compound `COc1ccccc1N(C(C)=O)c1nc(C)cc(C)c1C#N`, the “hERG current change (%, negative = inhibition) at 10uM” value was -4%. As for `CCOC(=O)c1sc(C)c2c(=O)n(CC)nnc12`, the “hERG current change (%, negative = inhibition) at 10uM” value came out at 1.94%. Regarding `CC1(C)NC(=O)N(CC(O)COc2ccccc2-c2ccccc2)C1=O` (stereo not shown), the “hERG current change (%, negative = inhibition) at 10uM” value worked out at 0.437%. In the case of `O=C1[C@H]2[C@@H](c3ccc(F)cc3)N3C(=O)N(c4ccc(Br)cc4)C(=O)[C@@]3(Cc3ccccc3)[C@H]2C(=O)N1C1CCCCC1`, the “hERG current change (%, negative = inhibition) at 10uM” value came to 4.66%. As for `N#CCOC(=O)c1sccc1-n1cccc1`, the “hERG current change (%, negative = inhibition) at 10uM” value was -4.8%. As for `Cc1ccc(OCC2Cn3c(nc4c3c(=O)n(C)c(=O)n4C)O2)cc1` (stereo not shown), the “hERG current change (%, negative = inhibition) at 10uM” value was -10.9%. On to `COC(=O)CNC(=O)c1c(-c2c(Cl)cccc2Cl)noc1C`, for which the “hERG current change (%, negative = inhibition) at 10uM” value was determined as 1.78%.

Consider `CCC(C)c1ccccc1OCCCN(C)Cc1ccccc1` (stereo not shown), for which the “hERG current change (%, negative = inhibition) at 10uM” value is -27%.

For `COc1ccc(N2CC(C(=O)N3CCc4ccccc43)CC2=O)cc1` (stereo not shown), the “hERG current change (%, negative = inhibition) at 10uM” value is given as -23.6%. On to `O=c1cc(N2CCN(c3ccc(F)cc3)CC2)[nH]c(=O)n1Cc1ccc(F)cc1`, for which the “hERG current change (%, negative = inhibition) at 10uM” value is on record as -8.76%. Consider `COc1ccc(S(=O)(=O)NCCCN2CCOCC2)c2ccccc12`, for which the “hERG current change (%, negative = inhibition) at 10uM” value was -5.22%. For `CC1CCCN(S(=O)(=O)c2ccc(NC(=O)CNC3CCCC3)cc2)C1` (stereo not shown) the value was 4.64%.

For the compound `O=C(O)CC12CC3CC(C1)CC(n1ncc(N4CCC5(CC4)OCCO5)c(Cl)c1=O)(C3)C2`, the “hERG current change (%, negative = inhibition) at 10uM” value is listed as 10.2%.

On to `O=[N+]([O-])c1cc(Cc2ccccc2)cc(C=Nc2ccc(N3CCOCC3)cc2)c1O`, for which the “hERG current change (%, negative = inhibition) at 10uM” value is listed as 12.1%. Regarding `O=C(Nc1ccccc1Cl)NC1(C(=O)N2CCOCC2)CCCCC1`, the “hERG current change (%, negative = inhibition) at 10uM” value stood at 17.5%. Next, `CCCc1nn(-c2cc(Cl)ccc2OC)c2c1C(=O)CC(C)(C)C2`: -21%. For the compound `CC(C)CCN(CCC(C)C)C/C(O)=C(\C#N)c1nc(-c2ccccc2)cs1`, the “hERG current change (%, negative = inhibition) at 10uM” value was -8.81%.

For `CCOC(=O)c1cnn(-c2nc(C)cc(C)n2)c1N`, the “hERG current change (%, negative = inhibition) at 10uM” value is listed as -13.2%. For `O=C(CCN1C(=O)C2C3CCC(C3)C2C1=O)OCC(=O)c1cccc([N+](=O)[O-])c1` (stereo not shown) the value was -4.11%; for `O=C(Nc1cccnc1Oc1ccc(Cl)cc1)c1cccc2ccccc12`, 3.61%.
